Screen size: about 230,000 compounds; about 3,600 (1.6%) were called active. The inconclusive results got no clear call from the source; some entries with a clear call stand among them for comparison. Calls come from the whole dose curve; as a rule, active = well fitted inhibition curve with a large enough effect (not every such curve was filed as active); inconclusive = small, poorly fitted or top-dose-only effect, or another doubt; inactive = no such curve, though single readings can be large or run the other way. Potencies beside an inconclusive call are fits to weak or partial responses and may not hold up.
target: Lysine-specific demethylase 4E (Homo sapiens) (UniProt B2RXH2); assay: qHTS Assay for Inhibitors of Human Jumonji Domain Containing 2E (JMJD2E); details: JMJD2E catalytic domain, FDH-coupled NADH fluorescence (FDH is formaldehyde dehydrogenase); series mostly up to 57.1 µM; activity change, negative = inhibition: at the top concentration
Note: nearly all actives have a fitted effect of over 50% in size.
Potency is the fitted concentration of half-maximal effect; tags give direction and shape of the fitted curve.
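Throughout, for activity change, negative = inhibition: 0% = wells with enzyme and -100% = buffer wells without enzyme.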

Chain of UniProt B2RXH2 (B2RXH2 whole entry, looked up, the tested form may be a part): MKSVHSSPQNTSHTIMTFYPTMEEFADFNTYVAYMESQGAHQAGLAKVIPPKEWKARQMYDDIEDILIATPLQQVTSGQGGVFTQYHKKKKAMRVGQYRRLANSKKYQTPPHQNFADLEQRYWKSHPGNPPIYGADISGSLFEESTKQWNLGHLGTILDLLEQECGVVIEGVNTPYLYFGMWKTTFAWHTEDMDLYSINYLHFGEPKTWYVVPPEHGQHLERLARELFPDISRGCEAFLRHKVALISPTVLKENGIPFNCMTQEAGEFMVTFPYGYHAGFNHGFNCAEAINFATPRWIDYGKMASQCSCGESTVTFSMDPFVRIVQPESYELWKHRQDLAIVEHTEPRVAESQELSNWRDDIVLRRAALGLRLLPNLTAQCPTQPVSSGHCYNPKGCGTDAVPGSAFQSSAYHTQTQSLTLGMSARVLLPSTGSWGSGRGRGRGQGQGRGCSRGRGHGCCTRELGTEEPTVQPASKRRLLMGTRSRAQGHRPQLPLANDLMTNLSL

Compound	Potency	activity change, negative = inhibition
O=C(NCC1CCCO1)C(c1cccs1)N(Cc1ccccc1Cl)C(=O)c1ccc(-c2ccccc2)[nH]1 (stereo unspecified)	inconclusive: 35.5 µM [inhibitor, single point]	
CNC(=O)NC(=S)NC(=O)c1cccc(Cl)c1	inconclusive: 0.0562 µM [inhibitor, full curve, poor fit]	
CCCC(=O)N/C(N)=N/c1nc(C)c2cc(C)ccc2n1		inactive: -27.3%
CCc1nc(C)cn1S(=O)(=O)c1cc(Cl)c(OC)cc1Cl		inactive: 9.29%
Cc1ncc(C[n+]2csc(C)c2C)c(N)n1	inconclusive: 39.8 µM [inhibitor, single point]	
C=CCN1C(=O)CN=C1Nc1cc(C)ccc1C		inactive: 5.59%
COC(=O)CNC(=O)C(Cc1ccccc1)NS(=O)(=O)c1ccc2c(c1)c(=O)n(C)c(=O)n2C (stereo unspecified)	inconclusive: 4.47 µM [inhibitor, single point]	
CCOc1ccc(Nc2nc3ccccc3n3nnnc23)cc1	inconclusive: 28.2 µM [inhibitor, partial curve]	
Cc1cc(NC(=O)CSc2ccc3nnc(-c4ccc(F)cc4)n3n2)no1	inconclusive: 35.5 µM [inhibitor, partial curve]	
O=C(COC(=O)c1ccc2c(c1)OCO2)Nc1ncc(Cl)cc1Cl	inconclusive: 28.2 µM [inhibitor, single point]	
CCCCn1c2nc3ccccc3nc2c2c(=O)n(-c3ccccc3)cnc21	inconclusive: 3.16 µM [inhibitor, full curve]	
O=C(CCCOc1ccc(Cl)cc1)N1CCCCCC1		inactive: -4.88%
CCCCNc1c(N)n(CCC)c(=O)[nH]c1=O	inconclusive: 31.6 µM [inhibitor, single point]	
CSc1nccc(-c2nn(-c3ccc(C)cc3)ccc2=O)n1	inconclusive: 28.2 µM [inhibitor, partial curve]	
CC(C)CCNC(=S)Nc1ccccn1	inconclusive: 8.91 µM [inhibitor, single point]	
CC(Oc1ccccc1F)c1ccnc2nc(/N=C/N(C)C)nn12 (stereo unspecified)	inconclusive: 31.6 µM [inhibitor, partial curve]	
O=C(Nc1ccc(N2CCN(C(=O)c3ccccc3F)CC2)cc1)c1ncn[nH]1	inconclusive: 39.8 µM [inhibitor, single point]	
CCC(=O)OCc1cc2cccc(C)c2[nH]c1=O	inconclusive: 10 µM [inhibitor, partial curve]	
Oc1c(I)cc(Cl)c2cccnc12	active: 14.1 µM	
Cc1cc(O)c(/C=N/c2ccccn2)c(=O)o1	inconclusive: 28.2 µM [inhibitor, partial curve]	
COc1cccc(/C=N/NC(=O)C(=O)N/N=C/c2cccc(OC)c2O)c1O	inconclusive: 25.1 µM [inhibitor, single point]	
CC(C)(C)c1cc(-c2n[nH]c(=S)n2-c2ccccc2F)n[nH]1		inactive: -29.5%
CCOC(=O)C1=C(C)NC(C)=C(C(=O)OCC)C1C(=O)OCC(N)=O	inconclusive: 35.5 µM [inhibitor, single point]	
COc1ccc(/C=N/NC(=O)CSc2ccccc2)cc1OC		inactive: -7.09%

Compound	Potency	activity change, negative = inhibition
COc1cccc(C(=O)Nc2cc(C(=O)NCCc3ccccc3)ccc2Cl)c1	inconclusive: 39.8 µM [inhibitor, single point]	
O=C(Nc1nnc(SCc2ccc(F)cc2)s1)c1ccccn1	inconclusive: 25.1 µM [inhibitor, single point]	
CCOC(=O)c1cc2ccc(OC(=O)c3ccco3)cc2oc1=O	inconclusive: 28.2 µM [inhibitor, partial curve]	
CC1(C)CC(=O)C2=C(C1)Nc1nc(SCCN3CCOCC3)[nH]c(=O)c1C2c1cccs1 (stereo unspecified)	inconclusive: 25.1 µM [inhibitor, single point]	
CCOC(=O)C1CCN(Cc2cccc(OC)c2)CC1	inconclusive: 25.1 µM [inhibitor, single point]	
O=C1CC(N2CCN(c3ccc(O)cc3)CC2)C(=O)N1c1ccc2c(c1)OCO2 (stereo unspecified)	inconclusive: 14.1 µM [inhibitor, partial curve]	
CCOC(=O)C1(Cc2ccc(OC)cc2)CCN(C(=O)c2sc(C)nc2C)CC1		inactive: -1.54%
COc1cc(-c2nn3c(-c4ccccc4)nnc3s2)cc(OC)c1OC	inconclusive: 22.4 µM [inhibitor, single point]	
COc1ccc(-c2csc(N(Cc3ccco3)C(=O)c3cccs3)n2)cc1	inconclusive: 31.6 µM [inhibitor, single point]	
COCCCNC(=S)N/N=C/c1ccc(O)cc1O	active: 17.8 µM	
O=C(NC(=S)Nc1ccccc1)c1cc(-c2ccccc2)nc2ccccc12	inconclusive: 35.5 µM [inhibitor, single point]	
CCOC(=O)N1CCN(c2nc(N(c3ccccc3)c3ccccc3)nc(-n3ccnc3)n2)CC1	inconclusive: 39.8 µM [inhibitor, single point]	
C=CCN1CCc2nc(N)sc2CC1	inconclusive: 35.5 µM [inhibitor, single point]	
Cc1ccc2nc(NC(=O)c3cccs3)sc2c1	inconclusive: 35.5 µM [inhibitor, single point]	
CC(/C=N/NC(=O)c1cc(-c2cccn2C)n[nH]1)=C\c1ccccc1		inactive: 2.28%
O=C(C[n+]1cc(-c2ccc(F)cc2)n2c1CCC2)Nc1nc(-c2ccc(F)cc2)cs1		inactive: -1.35%
CCn1c(C(=O)O)c(CC(=O)NC2CCCCCC2)c2ccccc21	inconclusive: 39.8 µM [inhibitor, single point]	
COC1=C(Nc2ccc(C)cc2)C(=O)c2ccccc2C1=O	active: 14.1 µM	
CC(C)NC(=O)CN1C(=O)c2ccccc2S1(=O)=O	inconclusive: 0.0447 µM [inhibitor, full curve, poor fit]	
COCCCNC(=S)N(Cc1ccccc1)Cc1ccc(F)cc1		inactive: -4.9%
CCOC(=O)c1c(CSc2ccsc2)n(C)c2cc(Br)c(O)c(CN(C)C)c12		inactive: -9.11%
Cc1c(CNC(=O)c2nn3c(c2Cl)NC(c2ccccc2)CC3C(F)(F)F)cnn1C (stereo unspecified)	inconclusive: 39.8 µM [inhibitor, single point]	
CCN1CCc2c(C#N)c(N3CCOCC3)nc(NCc3ccccc3)c2C1	inconclusive: 25.1 µM [inhibitor, partial curve]	
O=C(/C=C/c1ccc([N+](=O)[O-])s1)N1CCCC1	inconclusive: 31.6 µM [inhibitor, single point]	

Compound	Potency	activity change, negative = inhibition
CCOC(=O)Cc1csc(-n2sc3ccccc3c2=O)n1	active: 10 µM	
Cc1ccc(C(=O)N/N=C\c2ccc(-c3ccc([N+](=O)[O-])cc3)o2)cn1		inactive: -15.1%
CC(=O)N1N=C(c2ccc(Cl)cc2)CC1c1ccco1 (stereo unspecified)		inactive: 3.37%
Cc1noc(C)c1-c1ccc2ncnc(NCc3ccccc3)c2c1	inconclusive: 39.8 µM [inhibitor, single point]	
COc1ccc(S(=O)(=O)Nc2nc3ccccc3nc2NCC2CCCO2)cc1 (stereo unspecified)	inconclusive: 31.6 µM [inhibitor, partial curve]	
CCCCSc1nc2ccc(Nc3nc(N4CCOCC4)nc(N4CCOCC4)n3)cc2s1	inconclusive: 39.8 µM [inhibitor, single point]	
COc1ccc2cc(C(=O)C3CCCN(C(=O)Cc4c(C)noc4C)C3)ccc2c1 (stereo unspecified)	inconclusive: 31.6 µM [inhibitor, partial curve]	
Cc1ccc(C)c(N2CCN(C(=O)C3CCCN(S(=O)(=O)c4c(C)[nH]c(=O)[nH]c4=O)C3)CC2)c1 (stereo unspecified)		inactive: 2.21%
CC1=C(C#N)C(/C=N/OCc2ccc(Cl)cc2)CC(=O)N1 (stereo unspecified)	inconclusive: 25.1 µM [inhibitor, partial curve]	
Cc1ccc(S(=O)(=O)c2c(N)n(CCC(C)C)c3nc4ccccc4nc23)cc1	inconclusive: 25.1 µM [inhibitor, partial curve]	
COc1ccc(-n2nnnc2/C=C/Nc2cc(C(F)(F)F)ccc2OC)cc1	inconclusive: 28.2 µM [inhibitor, single point]	
O=C1CC2C(=O)NCCN2C(=NC(=O)c2ccccc2)N1 (stereo unspecified)	inconclusive: 1 µM [inhibitor, full curve, poor fit]	
O=S(=O)(Nc1nc2ccccc2nc1NCC1CCCO1)c1ccc(F)cc1 (stereo unspecified)	inconclusive: 31.6 µM [inhibitor, partial curve]	
Cc1ccc2nc(-c3ccc(NC(=O)c4ccco4)cc3)[nH]c2c1	inconclusive: 35.5 µM [inhibitor, single point]	
O=C(CSc1ncnc2c1oc1ccccc12)Nc1cccc(C(F)(F)F)c1	inconclusive: 25.1 µM [inhibitor, single point]	
CC(C)CC(=O)Nc1ccc(-c2cn3ccsc3n2)cc1		inactive: 8.9%
COc1cccc(-c2nc(-c3ccc(NC(=O)Cc4ccccc4OC)cc3)no2)c1	inconclusive: 35.5 µM [inhibitor, single point]	
N#Cc1cccc(C(c2nnnn2C2CCCC2)N2CCC(Cc3ccccc3)CC2)c1 (stereo unspecified)		inactive: 7.67%
O=C(CSC1=NNC(c2ccccn2)S1)Nc1ccc(C(F)(F)F)cc1 (stereo unspecified)		inactive: -29.4%
C=C1CSc2nc(=O)c3c4c(sc3n21)CCCC4		inactive: -1.57%
O=C(CSc1nc2ccc(Nc3nc(N4CCCC4)nc(N4CCCC4)n3)cc2s1)NCc1ccco1	active: 20 µM	
N#Cc1c2c(c(NCc3cccnc3)n3c1nc1ccccc13)CCC2	inconclusive: 22.4 µM [inhibitor, partial curve]	
Cn1ncc(Cl)c1C(=O)N1CCN(c2ncccn2)CC1	inconclusive: 39.8 µM [inhibitor, single point]	

Reference: PubChem BioAssay AID2147 (National Center for Advancing Translational Sciences (NCATS), 2009)
